How the values were obtained:
[1] = biological target: T1, NSP14 MTase (Severe acute respiratory syndrome coronavirus 2, UniProt P0DTD1); details: read-out: KM of NSP14 MTase; method of initial rates, n=3; other substrate held constant at 200 μM
[2] = biological target: T1, NSP14 MTase; details: cited from earlier work; for activity toward NSP14 MTase: HTRF screen of 5,000 pharmaceutical compounds; for EC50: read-out: reported EC50, NSP14 MTase
[3] = biological target: HNMT (Homo sapiens, UniProt P50135); assay: HNMT specificity screen; format: biochemical
UniProt P50135, sequence (P50135 whole entry): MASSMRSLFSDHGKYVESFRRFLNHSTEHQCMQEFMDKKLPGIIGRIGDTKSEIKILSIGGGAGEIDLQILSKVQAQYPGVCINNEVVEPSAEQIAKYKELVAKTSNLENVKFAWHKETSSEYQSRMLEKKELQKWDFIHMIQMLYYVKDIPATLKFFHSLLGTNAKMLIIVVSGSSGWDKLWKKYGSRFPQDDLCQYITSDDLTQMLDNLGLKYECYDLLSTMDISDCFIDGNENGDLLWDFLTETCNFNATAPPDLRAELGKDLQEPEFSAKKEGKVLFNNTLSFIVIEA

[4] = biological target: T1, NSP14 MTase; format: biochemical, SARS-CoV-2

| SMILES | Km [1] | activity toward NSP14 MTase [2] | EC50 [2] | also measured |
| --- | --- | --- | --- | --- |
| Nc1nc2c(ncn2[C@@H]2O[C@H](COP(=O)(O)OP(=O)(O)OP(=O)(O)OC[C@H]3O[C@@H](n4cnc5c(=O)[nH]c(N)nc54)[C@H](O)[C@@H]3O)[C@@H](O)[C@H]2O)c(=O)[nH]1 [GpppG] | 1.04 ± 0.14 µM |  |  |  |
| CCC(Sc1nnc2c(n1)[nH]c1ccccc12)C(=O)N1c2ccccc2Sc2ccccc21 (stereo not shown) [Inauzhin] |  | micromolar activity | 23 µM |  |
| Nc1nc(OCc2cc(Br)cs2)c2[nH]cnc2n1 [Lomeguetrib, Lomeguatrib] |  | micromolar activity | 59.8 µM |  |
| CC(=O)N1CCN(c2ccc(C(=O)N3CCN(Cc4ccccc4)CC3)nn2)C(=O)C1 [NCGC00537446] |  |  |  | potency difference between NSP14 MTase and HNMT [3]: greater than 10 fold; effect on VMAX, GpppG MTase substrate [4]: some influence; effect on VMAX, SAM [4]: no influence; increase of KM for SAM [4]: roughly 2 fold; mechanism of inhibition with respect to GpppG [4]: noncompetitive; effect on KM for GpppG MTase substrate ([4]; SAM constant at 100 μM, 0 to 10 μM compound): not significantly influenced |
| N#Cc1ccc(N2N=C3c4ccc(C(=O)O)cc4CC[C@@H]3[C@@H]2C2CCCC2)cc1Cl [PF-03882845] |  | micromolar activity |  |  |
| C[S+](CC[C@H](N)C(=O)[O-])C[C@H]1O[C@@H](n2cnc3c(N)ncnc32)[C@H](O)[C@@H]1O (stereo partly shown) [SAM] | 2.65 ± 0.27 µM |  |  |  |
